Results as given in publication PMC4336329 (PLoS ONE, 2015).
About 2,200 (0.71%) of roughly 310,000 compounds showed an effect of 50% or more. The effect is printed as a negative number. This is one part of the list.

Target: human ether-à-go-go-related gene (hERG) potassium channel (human, UniProt Q12809)
Experiment: primary screen, population patch clamp on CHO cells stably expressing hERG

Sequence of human ether-à-go-go-related gene (hERG) potassium channel (Q12809 whole entry, looked up): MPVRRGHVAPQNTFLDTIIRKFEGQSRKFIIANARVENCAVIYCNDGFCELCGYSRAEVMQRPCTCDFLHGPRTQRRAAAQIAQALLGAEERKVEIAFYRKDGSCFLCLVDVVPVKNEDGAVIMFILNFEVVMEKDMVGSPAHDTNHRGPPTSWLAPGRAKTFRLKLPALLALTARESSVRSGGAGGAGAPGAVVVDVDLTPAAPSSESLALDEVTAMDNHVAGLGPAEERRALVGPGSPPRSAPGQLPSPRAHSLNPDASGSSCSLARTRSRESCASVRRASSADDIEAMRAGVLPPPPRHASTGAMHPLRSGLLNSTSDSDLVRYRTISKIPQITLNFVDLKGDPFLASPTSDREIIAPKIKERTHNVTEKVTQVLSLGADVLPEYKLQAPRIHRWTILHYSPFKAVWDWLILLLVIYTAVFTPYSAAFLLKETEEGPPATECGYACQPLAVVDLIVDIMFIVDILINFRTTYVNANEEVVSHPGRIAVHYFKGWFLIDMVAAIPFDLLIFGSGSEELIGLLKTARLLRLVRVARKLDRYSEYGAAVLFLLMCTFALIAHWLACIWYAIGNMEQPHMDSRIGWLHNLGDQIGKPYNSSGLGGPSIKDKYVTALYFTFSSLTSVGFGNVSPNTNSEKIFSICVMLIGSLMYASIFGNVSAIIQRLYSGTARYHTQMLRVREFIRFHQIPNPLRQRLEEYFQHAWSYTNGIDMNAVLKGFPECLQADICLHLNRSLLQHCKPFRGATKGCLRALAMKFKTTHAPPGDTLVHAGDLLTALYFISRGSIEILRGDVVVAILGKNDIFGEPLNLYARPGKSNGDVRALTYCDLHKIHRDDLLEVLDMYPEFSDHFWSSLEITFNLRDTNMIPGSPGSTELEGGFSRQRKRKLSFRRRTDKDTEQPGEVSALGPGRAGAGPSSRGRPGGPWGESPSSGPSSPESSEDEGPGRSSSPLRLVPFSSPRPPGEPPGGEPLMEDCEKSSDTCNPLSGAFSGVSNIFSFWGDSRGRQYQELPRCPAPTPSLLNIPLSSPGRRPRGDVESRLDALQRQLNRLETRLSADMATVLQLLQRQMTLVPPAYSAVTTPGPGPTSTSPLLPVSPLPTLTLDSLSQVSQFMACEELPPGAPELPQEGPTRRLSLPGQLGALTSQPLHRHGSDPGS

Structure (SMILES)	hERG current change (%, negative = inhibition) at 1uM
CCc1ccc(NC(=O)C(=O)c2cn(CC(=O)N3CCCCC3)c3ccccc23)cc1	5.86%
CCC(C(=O)Nc1cccc(S(=O)(=O)N(C)c2ccccc2)c1)c1ccccc1 (centres unmarked)	3.67%
Cn1c(NC(=O)c2ccc(F)cc2)c(-c2cccs2)c(=O)c2ccccc21	11.7%
O=C(CSc1nnc(SCc2cccc3ccccc23)s1)Nc1ccc(C(=O)O)cc1	17.9%
O=[N+]([O-])c1cnn2cc(Br)cnc12	5.98%
CCOC(=O)c1ccc(NC(=O)COc2ccc(CNC3CCCCC3)cc2OC)cc1	6.89%
COc1cc(C)c(Cc2cnc(N)nc2N)cc1OC	4.47%
CCOc1ccc(/C=C/C(=O)OCC(=O)c2ccccc2OC)cc1OC	10.9%
Cc1cc(C)cc(NS(=O)(=O)c2ccc(NC(=S)Nc3ccccc3)cc2)c1	-1.33%
O=[N+]([O-])c1cc(C(F)(F)F)ccc1N1CCC(O)CC1	10.9%
CC(C)n1c(SCC(=O)Nc2ccccc2N2CCOCC2)nc2c1c(=O)n(C)c(=O)n2C	1.63%
COc1ccc(S(=O)(=O)N2CCCCC2)cc1NC(=O)C1CC1C (centres unmarked)	4.31%
Cc1noc(NS(=O)(=O)c2ccc(NC(=O)COc3ccccc3)cc2)c1C	0.478%
Cc1ccc(S(=O)(=O)N2CCC(C)CC2)c([N+](=O)[O-])c1	6.38%
Cc1cc(C)c2c3c(sc2n1)C(c1cccc(F)c1)C(C#N)=C(N)O3 (centres unmarked)	0.935%
CC1(C)CC(=O)C(C(C2=C(O)CC(C)(C)CC2=O)c2cccnc2)C(=O)C1 (centres unmarked)	6.85%
CS(=O)(=O)N(CC(=O)Nc1ccccc1Sc1ccccc1)c1cccc(Br)c1	0.112%
COc1ccc(/C=C/C(=O)Nc2cccnc2Cl)cc1	21.6%
CC(=O)c1cccc(NC(=O)C2C3CCC(C3)C2C(=O)O)c1 (centres unmarked)	11.7%
NS(=O)(=O)c1ccc(CNC(=O)c2cc(-c3cccnc3)nc3ccc(Cl)cc23)cc1	12.5%
O=C(Nc1ccc(F)cc1)c1cc2ccccc2o1	16.4%
O=C(NNC(=S)Nc1ccc(OC(F)F)cc1)c1cc2c(s1)CCCC2	14.3%
CCc1nc2ccccc2c(C(=O)OCC(=O)Nc2ccc(S(=O)(=O)N3CCOCC3)cc2)c1C	10.1%
